Out of some 310,000 compounds screened, about 2,200 (0.71%) showed an effect of 50% or more. The effect is printed as a negative number. The list shows a part of the results.
Each compound was assayed against human ether-à-go-go-related gene (hERG) potassium channel (human, UniProt Q12809) (assay: primary screen, population patch clamp on CHO cells stably expressing hERG).
Chain of human ether-à-go-go-related gene (hERG) potassium channel (Q12809 whole entry, looked up): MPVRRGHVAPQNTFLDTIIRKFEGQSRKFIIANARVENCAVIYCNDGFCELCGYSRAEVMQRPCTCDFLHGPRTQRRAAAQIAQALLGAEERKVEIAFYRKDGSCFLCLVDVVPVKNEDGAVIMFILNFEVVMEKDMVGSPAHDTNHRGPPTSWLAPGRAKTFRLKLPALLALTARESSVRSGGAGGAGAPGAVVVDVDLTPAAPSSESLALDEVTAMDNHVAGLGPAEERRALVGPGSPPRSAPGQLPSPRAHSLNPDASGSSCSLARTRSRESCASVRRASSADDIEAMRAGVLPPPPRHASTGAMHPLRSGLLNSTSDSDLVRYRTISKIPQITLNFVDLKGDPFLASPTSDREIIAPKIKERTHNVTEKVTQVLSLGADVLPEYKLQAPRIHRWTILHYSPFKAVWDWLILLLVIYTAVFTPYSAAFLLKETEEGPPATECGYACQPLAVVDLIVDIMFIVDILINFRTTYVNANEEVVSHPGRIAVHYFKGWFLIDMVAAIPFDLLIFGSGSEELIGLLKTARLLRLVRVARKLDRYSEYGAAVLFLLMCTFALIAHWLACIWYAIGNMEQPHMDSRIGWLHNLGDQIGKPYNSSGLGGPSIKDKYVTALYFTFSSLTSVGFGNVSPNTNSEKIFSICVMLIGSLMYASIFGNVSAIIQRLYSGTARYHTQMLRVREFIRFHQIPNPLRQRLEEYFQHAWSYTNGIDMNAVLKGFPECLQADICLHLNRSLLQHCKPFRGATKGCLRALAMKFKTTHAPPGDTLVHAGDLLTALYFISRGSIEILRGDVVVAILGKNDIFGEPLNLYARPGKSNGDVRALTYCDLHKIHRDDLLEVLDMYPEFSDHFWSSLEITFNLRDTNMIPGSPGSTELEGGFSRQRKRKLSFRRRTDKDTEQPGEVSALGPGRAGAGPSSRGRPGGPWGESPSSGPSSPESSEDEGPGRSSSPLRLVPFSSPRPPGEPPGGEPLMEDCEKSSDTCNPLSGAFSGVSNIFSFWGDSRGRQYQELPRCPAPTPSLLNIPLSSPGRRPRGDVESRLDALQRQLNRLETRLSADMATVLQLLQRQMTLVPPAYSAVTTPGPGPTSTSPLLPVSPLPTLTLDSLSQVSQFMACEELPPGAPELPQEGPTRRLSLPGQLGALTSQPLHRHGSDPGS

| SMILES | hERG current change (%, negative = inhibition) at 1uM [%] |
| --- | --- |
| CCOC(=O)Cn1c(=O)n(Cc2ccc(OC)cc2)c(=O)c2cccnc21 | 6.99 |
| COc1ccccc1NC(=O)c1cc2ccccc2nc1C | 5.66 |
| COc1cccc(/C=N/Nc2snc(SC)c2C#N)c1 | 6.81 |
| Cc1cccc(N2CCN(C(=O)c3cc(S(=O)(=O)N(C)C)ccc3N3CCCC3)CC2)c1C | 5.76 |
| CCN(CC)S(=O)(=O)c1ccc(N2CCOCC2)c(NC(=O)C2CC2)c1 | 11.3 |
| Nc1nc(N2CCN(Cc3ccccc3)CC2)n[nH]1 | 18.6 |
| O=C(OCc1ccccc1)c1cccc(-c2nnc(-c3ccccc3)o2)c1 | 1.17 |
| CC(C)Cc1ccc(/C=C/C(=O)N2CCOCC2)cc1 | 4.88 |
| COc1cccc(C2CC(c3ccccc3OC)n3nc(N)nc3N2)c1 (centres unmarked) | -0.164 |
| Cc1ccc(CNC(=O)c2ccc(COc3ccccc3)cc2)cc1 | 3.02 |
| CCc1ccc(-c2nc(CSCC(=O)N3CCN(c4ncccn4)CC3)c(C)o2)cc1 | -9.6 |
| CCOC(=O)c1c(-c2ccc(C)o2)csc1NC(=O)CN1CCCCC1.O=C(O)C(=O)O | -0.16 |
| CC(C)[C@H](NC(=O)c1ccc(C(C)(C)C)cc1)C(=O)Nc1nnc(C2CC2)s1 | 6.77 |
| CSc1nc(Oc2ccccc2)c2sccc2n1 | 6.24 |
| COc1ccc(CCn2c(=S)[nH]c3ccc(N4CCOCC4)cc3c2=O)cc1OC | 8.71 |
| OCCNc1nc(Nc2ccccc2)nc(Nc2ccccc2)n1 | 1.91 |
| COc1ccc(F)c(CN2CCCC(CO)(Cc3cccc(Cl)c3)C2)c1 (centres unmarked) | 11.8 |
| Cn1c(O)c(C=NCCCCCCCCCCC(=O)O)c(=O)n(C)c1=O | 11 |
| COc1cccc(C2=CC(c3ccc(N(C)C)cc3)n3nnnc3N2)c1 (centres unmarked) | 15.7 |
| Cc1cc(C)c2c(=O)c(C#N)coc2c1 | 0.604 |
| COc1ccc(-n2nc3c(c2NC(=O)COc2ccccc2F)CS(=O)(=O)C3)cc1 | 2.02 |
| Cc1cccc(Nc2nnc(SCC3CCCCO3)s2)c1C (centres unmarked) | -4.03 |

| SMILES | hERG current change (%, negative = inhibition) at 1uM [%] |
| --- | --- |
| COC(=O)CC1C(C(=O)OC)ON2OC(C(=O)OC)C(C(=O)OC)C12 (centres unmarked) | 10.4 |
| CCSc1nc(O)c(C(c2cccc(OC)c2)c2c(O)nc(SCC)[nH]c2=O)c(=O)[nH]1 | 10.4 |
| FC(F)(F)c1cc(-c2cccs2)nc(N2CCOCC2)n1 | 14.2 |
| CCOc1ccc2nc(NC(=O)c3cccnc3)sc2c1 | 13.8 |
| COC(=O)C1=C(C)N(C)C(=O)/C1=C\c1ccco1 | 12.5 |
| COc1ccccc1Nc1nc(N)nc(-c2cc3ccccc3o2)n1 | 24.8 |
| Cc1cccc(NC(=O)c2ccc(S(=O)(=O)N3CCN(C)CC3)cc2)c1C | 6.26 |
| Cc1ccc(-n2nc3cc(C)c(NC(=O)c4cccnc4)cc3n2)cc1 | 6.99 |
| COc1ccc(S(=O)(=O)N2CCOC2CNC(=O)C(=O)NCCCc2ccccc2)cc1 (centres unmarked) | -8.65 |
| O=C(Nc1ccc(Cl)cc1)[C@@H]1[C@@H]2C(=O)N(c3ccc(Cl)cc3)C(=O)[C@@H]2[C@H]2C=CC=NN21 | 0.701 |
| CCOc1ccc(NC(=O)CN(c2ccc(OC)cc2)S(=O)(=O)c2cccs2)cc1 | 2.87 |
| CC(C)CC1Nc2ncnc(N3CCOCC3)c2N(Cc2ccc(Br)cc2)C1=O.O=C(O)C(F)(F)F (centres unmarked) | 9.91 |
| O=C(CNS(=O)(=O)c1ccc(F)cc1)N1CCCC1 | 8.95 |
| Cc1ccsc1/C=C/C1=Cc2c(sc(NC(=O)CSc3n[nH]c(N)n3)c2C#N)C(C)(C)C1 | 7.37 |
| Cc1c(NC(=O)CN2C(=O)c3ccccc3S2(=O)=O)c(=O)n(-c2ccccc2)n1C | 6.5 |
| O=C(Nc1nc2c(F)cc(F)cc2s1)C1CC(=O)N(Cc2ccco2)C1 (centres unmarked) | 0.707 |
| CC(C)(C)C(=O)/C=C/c1ccc(Oc2ccccc2)cc1 | 11.9 |
| O=C(O)/C(=C\c1c(C(=O)O)[nH]c2cc(Cl)cc(Cl)c12)c1ccccc1 | 13.4 |
| O=C(O)c1cc(-c2ccc(/C=N/NC(=S)Nc3ccccc3)o2)ccc1Cl | 5.46 |
| COc1ccccc1NC(=O)c1ccc(Cl)c(S(=O)(=O)N2CCOCC2)c1 | 3.63 |
| CN1C(=O)NC(=O)/C(=C/c2ccc(C(=O)O)cc2)C1=O | 5.5 |
| Cc1ccc(/C=N/NC(=O)c2ccc3c(c2)OCCO3)s1 | 10.5 |

| SMILES | hERG current change (%, negative = inhibition) at 1uM [%] |
| --- | --- |
| Cc1cc(/C=C2/NC(=O)N(c3ccccc3)C2=O)c(C)n1-c1cccnc1 | 9.45 |
| CC(C)COc1cccc(-c2cc(C(=O)N/N=C/c3ccncc3)c3ccccc3n2)c1 | 8.04 |
| COc1cc(C#N)ccc1OC(=O)Cc1cc(OC)c(OC)c(OC)c1 | 5.98 |
| Cc1cccc(C)c1-n1c(C)cc(/C=N\NC(=O)CC(=O)NC2CCCCC2)c1C | 13 |
| Cc1ccccc1Sc1ccc(N)cn1 | 12.1 |
| CCOc1ccccc1OCC(=O)Nc1ccc(N2CCCCC2)cc1 | 10.3 |
| COc1ccc(NC(=O)CN(C)C(=O)c2ccc(COc3ccccc3)o2)cc1 | 4.2 |
| O=C(NC1CCCCC1)C(Cc1ccccc1)N1C(=O)C2C3CCC(C3)C2C1=O (centres unmarked) | 6.24 |
| Cc1cncn1CCc1nc2c3ccccc3nc(SCC(=O)Nc3cccc(Cl)c3)n2n1 | -5.37 |
| COc1cc(NC(C)CCCN)c2ncccc2c1Oc1ccccc1.O=C(O)CCC(=O)O (centres unmarked) | 2.23 |
| COc1ccc(OC)c(/C=N/N(C)c2ccccc2)c1 | 12.4 |
| COc1ccc(N2C(N)=C(C#N)C(c3ccsc3)C3=C2CCCC3=O)c(OC)c1 (centres unmarked) | 6.88 |
| CC(C)NC(=O)C1(O)c2ccccc2NC(=O)N1c1ccc(Cl)c(Cl)c1 (centres unmarked) | 13.8 |
| CC(=O)c1ccc(N2CCN(S(=O)(=O)c3cc4[nH]c(=O)c(=O)[nH]c4cc3C)CC2)cc1 | 6.22 |
| O=C(Nc1cccc(-c2nc3cccnc3s2)c1)c1ccco1 | -0.783 |
| Oc1[nH]c2ccccc2c1N=Nc1c(F)c(F)c(Cl)c(F)c1F | 9.96 |
| Cc1ccc(-c2nnn(CC(=O)N(CCN3CCOCC3)C(C(=O)NC(C)(C)C)c3ccco3)n2)cc1 (centres unmarked) | 17.8 |
| COc1ccc(OC)c(CCNC(=O)c2cccc(NC3=NC4CS(=O)(=O)CC4S3)c2)c1 (centres unmarked) | -0.402 |
| Cc1cccc(OCc2nnc(SCC(=O)NC3CCCCC3)n2C)c1 | 9.94 |
| Cc1nnc(SCC(=O)Nc2ccc(N3CCOCC3)cc2)n1Cc1ccccc1 | 1.85 |
| CC(C)c1ccc(N(C(=O)c2ccco2)C(C(=O)NC2CCCC2)c2ccncc2)cc1 (centres unmarked) | -1.36 |
| NC(=O)c1ccc(NC(=O)CCc2nc3ccccc3s2)cc1 | 7.25 |

| SMILES | hERG current change (%, negative = inhibition) at 1uM [%] |
| --- | --- |
| CCOC(=O)c1sc2ncnc(NCc3ccco3)c2c1C | 3.39 |
| C=C(C)C(=O)Nc1cccc(C2=NOC3(C2)C[C@@H](C(N)=O)N(C(=O)[C@H]2CCC(=O)N2)C3)c1 (some centres unmarked) | 9.83 |
| COc1cc2[nH]c(=S)n(C3CCN(Cc4ccccc4)CC3)c(=O)c2cc1OC | -4.65 |
| CCOC(=O)c1ccc(Oc2cc(C)nc(SC)n2)cc1 | 3.34 |
| O=C(Nc1ccccc1)OCCOc1cccc(Br)c1 | 7.9 |
| O=C(CN1CCN(c2ccc(F)cc2)CC1)NCc1ccc(F)cc1 | -8.95 |
| COc1ccc(-c2noc(COc3ccccc3OC)n2)cc1OC | 7.41 |
| NNC(=O)CSc1nnnn1-c1ccccc1 | 3.23 |
| CN1CCN(C(c2cccc(C(F)(F)F)c2)c2nnnn2C(C)(C)C)CC1 (centres unmarked) | 8.5 |
| O=C1C2C3C=CC(C3)C2C(=O)N1c1cccnc1 (centres unmarked) | 13.5 |
| COc1cc(C(=O)NCc2ccc3c(c2)OCO3)ccc1OCc1c(C)noc1C | 3.55 |
| CC1CN(C2CCN(S(=O)(=O)Cc3ccccc3)CC2)CC(C)O1 (centres unmarked) | -2.68 |
| Cc1ccc(C2c3c(C)nn(-c4ccc([N+](=O)[O-])cc4)c3N=C3C(=O)Nc4ccccc4N32)cc1 (centres unmarked) | 11.9 |
| Oc1ccc(-c2nccc(-c3ccc(Br)cc3)n2)cc1 | 12.9 |
| CC(C)CCN1C(=O)c2ccc(C(=O)NCc3ccco3)cc2C1=O | -1.4 |
| COc1cccc(S(=O)(=O)Nc2ccc3sc(C)nc3c2)c1 | 10.2 |
| CCCSc1cc(N2CCCC2)nc(-c2ccccc2)n1 | 10.8 |
| O=C(Nc1cccc(C(=O)Nc2ccccc2F)c1)c1ccccc1 | 11.4 |
| CC(C)c1ccc2oc(=O)cc(CN3CCN(Cc4ccccc4)CC3)c2c1 | 9.67 |
| O=C(CCc1n[nH]c(=O)[nH]c1=O)N/N=C/c1ccc(Br)o1 | 6.63 |

From paper PMC4336329 (PLoS ONE, 2015)
